According to paper PMC4336329 (PLoS ONE, 2015):
The campaign covered roughly 310,000 compounds. About 2,200 (0.71%) showed an effect of 50% or more. Effects have a minus sign here. The list shows a part of the results.

Target: human ether-à-go-go-related gene (hERG) potassium channel (human, UniProt Q12809)
Test: primary screen, population patch clamp on CHO cells stably expressing hERG

Sequence of human ether-à-go-go-related gene (hERG) potassium channel (Q12809 whole entry, looked up): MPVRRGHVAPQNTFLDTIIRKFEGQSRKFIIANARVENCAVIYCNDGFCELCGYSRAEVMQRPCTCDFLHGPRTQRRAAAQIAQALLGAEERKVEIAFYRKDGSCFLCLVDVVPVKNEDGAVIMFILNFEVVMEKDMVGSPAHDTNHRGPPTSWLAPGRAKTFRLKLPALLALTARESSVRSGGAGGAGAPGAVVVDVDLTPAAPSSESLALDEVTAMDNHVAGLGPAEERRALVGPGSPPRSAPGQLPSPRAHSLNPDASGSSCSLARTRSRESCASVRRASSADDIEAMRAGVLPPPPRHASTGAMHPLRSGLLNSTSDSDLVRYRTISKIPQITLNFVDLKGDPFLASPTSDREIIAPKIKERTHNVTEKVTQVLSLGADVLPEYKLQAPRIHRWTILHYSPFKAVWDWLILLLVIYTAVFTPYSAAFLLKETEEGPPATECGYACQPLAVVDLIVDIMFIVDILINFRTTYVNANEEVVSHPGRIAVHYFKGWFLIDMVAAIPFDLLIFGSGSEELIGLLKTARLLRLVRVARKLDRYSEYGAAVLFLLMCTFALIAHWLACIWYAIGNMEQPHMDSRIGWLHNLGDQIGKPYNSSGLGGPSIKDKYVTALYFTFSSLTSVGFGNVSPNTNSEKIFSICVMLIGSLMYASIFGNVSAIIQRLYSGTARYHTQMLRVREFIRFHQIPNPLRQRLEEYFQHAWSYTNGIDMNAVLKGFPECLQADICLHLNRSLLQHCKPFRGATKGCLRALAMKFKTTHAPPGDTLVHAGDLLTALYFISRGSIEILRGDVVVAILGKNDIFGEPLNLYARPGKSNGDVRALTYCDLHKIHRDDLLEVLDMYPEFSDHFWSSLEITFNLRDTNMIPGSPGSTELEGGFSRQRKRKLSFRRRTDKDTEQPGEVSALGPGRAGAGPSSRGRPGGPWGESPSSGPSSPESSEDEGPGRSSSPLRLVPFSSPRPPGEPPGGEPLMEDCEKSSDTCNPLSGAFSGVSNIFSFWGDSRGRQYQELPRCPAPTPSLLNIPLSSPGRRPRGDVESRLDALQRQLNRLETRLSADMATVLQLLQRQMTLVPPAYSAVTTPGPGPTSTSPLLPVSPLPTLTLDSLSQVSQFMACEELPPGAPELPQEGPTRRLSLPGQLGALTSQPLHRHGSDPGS

Row | SMILES | hERG current change (%, negative = inhibition) at 1uM [%]
1 | CCCCCC(=O)NN1C(=S)N(c2ccc(OC)cc2)C(=O)C1CC(=O)Nc1ccccc1 (stereo not drawn) | 4.87
2 | CCOC(=O)C1CCCN(c2c(N3CCC(N4CCCCC4)CC3)c(=O)c2=O)C1 (stereo not drawn) | 8.42
3 | COc1ccc(NC(=O)Nc2ccc(F)cc2)cn1 | 16
4 | O=C(O)CC1c2ccccc2CCN1S(=O)(=O)c1ccc(F)cc1 (stereo not drawn) | 9.38
5 | CCn1c(SCC(=O)Nc2nc(-c3ccc(C)cc3)cs2)nnc1-c1ccccc1 | 2.49
6 | O=C(C1CC1)N1CCc2cc(S(=O)(=O)N(CCO)Cc3ccccc3)ccc21 | 1.01
7 | Cc1nn(Cc2ccc([N+](=O)[O-])cc2)c(=O)n1-c1ccc(F)cc1 | 9.97
8 | O=C(NCc1nc2ccccc2[nH]1)C1=C[C@H](C2CCCCC2)C[C@H](OCc2ccc(CO)cc2)O1 | 6.73
9 | CC(=O)C1=C(c2ccccc2)NC(=S)NC1c1ccc(O)c(O)c1 (stereo not drawn) | 13.2
10 | O=C(Nc1ccc(SC(F)F)cc1)C1=COCCO1 | 1.85
11 | CCOCC(=O)Nc1cccc(NC(C)=O)c1 | 6.22
12 | CCN(CC(=O)Nc1c(F)cccc1F)C(=O)c1cc([N+](=O)[O-])ccc1N1CCOCC1 | 7.64
13 | O=C(CN(CCc1ccccc1)S(=O)(=O)c1ccc(Br)cc1)N/N=C/c1ccccc1C(=O)O | 10.4
14 | O=c1[nH]c(C2CCN(S(=O)(=O)c3ccccc3F)CC2)nc2c1nnn2Cc1ccc2c(c1)OCCO2 | 8.2
15 | CCn1c(OC)nc2c1c(=O)n(C)c(=O)n2C | 11
16 | Cc1ccc(-c2csc(/C=C3\SC(C)C(=O)N3CC(=O)Nc3ccccc3F)n2)cc1 (stereo not drawn) | 6.48
17 | COc1ccc(C(=O)NC(=S)NNC(=O)c2ccc(C)cc2)cc1 | 14.7
18 | CC(NC(=O)Cc1ccccc1)c1nc2ccccc2[nH]1 (stereo not drawn) | 9.94
19 | CCOC(=O)C1(Cc2ccc(OC)cc2)CCN(C(=O)c2csc(C)n2)CC1 | 12.8

Row | SMILES | hERG current change (%, negative = inhibition) at 1uM [%]
20 | O=C(Nc1ccc2[nH]ncc2c1)c1cccc(F)c1 | 12.9
21 | Cc1ccc(Nc2nc(COC(=O)COc3ccc(C=O)cc3)cs2)cc1 | 7.46
22 | O=C(NCCS(=O)(=O)NCc1ccccc1)c1ccc2c(c1)OCO2 | 12.4
23 | CC(=O)Oc1ccc(NC(=O)CCC2CCCCC2)c(C(=O)O)c1 | 9.09
24 | Cn1nnc(NC(=S)NC(=O)/C=C/c2ccco2)n1 | 18.4
25 | COc1ccc2c(c1)C(=O)CC(O)(C(F)F)O2 (stereo not drawn) | 3.11
26 | COc1cc(N)n(S(=O)(=O)c2ccc(C)cc2)n1 | 14.3
27 | CC(C)c1nc(CN(C)C(=O)N[C@H](C(=O)N[C@@H](Cc2ccccc2)C[C@H](O)[C@H](Cc2ccccc2)NC(=O)OCc2cncs2)C(C)C)cs1 | 10.6
28 | CCN(CC)C(=O)c1cnn(-c2ccccc2)c1NC(=O)c1cccs1 | 9.61
29 | COc1cccc(CN2CCN(Cc3cccc(F)c3)CC2)c1.O=C(O)C(=O)O | 10.2
30 | CCCCc1ccc(NC(=S)N2CCN(c3ccccn3)CC2)cc1 | 6.18
31 | O=C1CSc2ccccc2N1Cc1ccc(F)cc1 | 8.14
32 | OC(c1cccnc1)c1cccs1 (stereo not drawn) | 15.6
33 | Cc1cccc(NC(=S)N2CCCCCC2)c1C | 15.2
34 | CC(=O)NCCc1nc2ccccc2n1Cc1ccc(Cl)cc1 | 9.78
35 | O=C(NCCc1ccc(Cl)cc1)c1ccc2nccnc2c1 | -6.73
36 | CCN1CCc2nc(SCC(=O)Nc3ccc(OC)cc3)c(C#N)cc2C1 | -18
37 | Cc1cccc(C2c3[nH]c4ccccc4c3CCN2C(=O)c2cc(CC(C)C)nc(C)n2)n1 (stereo not drawn) | 14
38 | O=C(O)C1C(=O)NCC1c1ccccc1 (stereo not drawn) | 9.14

Row | SMILES | hERG current change (%, negative = inhibition) at 1uM [%]
39 | COC(=O)c1sc(NC(=O)c2ccco2)nc1C | 18
40 | CCN(CC)c1ccc(-n2c(C)cc(C=O)c2C)cc1 | 13.3
41 | Cc1nc2ccccc2n1CC(O)COc1ccc(Br)cc1 (stereo not drawn) | -5.81
42 | FC(F)(F)c1nnc2sc(-c3ccncc3)nn12 | 11.4
43 | CCO.CCOC(=O)c1c(-c2ccccc2)oc2ccc(OC(C)C(=O)O)cc12 (stereo not drawn) | 6.31
44 | COc1ccc(-n2c(=S)[nH]c3cc(C(=O)Nc4cccc(C)c4)ccc3c2=O)cc1 | 2.35
45 | O=C(NN1CCOCC1)c1cc(S(=O)(=O)Nc2cccc(C(F)(F)F)c2)ccc1Cl | 6.25
46 | O=C(Nc1nccs1)c1ccc(Cl)c([N+](=O)[O-])c1 | 11.2
47 | CCN(c1ccccc1)S(=O)(=O)c1ccc(C(=O)Nc2nccs2)cc1 | 4.94
48 | Cc1cc(OCC(=O)Nc2ccccc2C)no1 | 15.1
49 | CC(C)NC(=O)CSc1nc(N)c(-c2ccccc2)c(=O)[nH]1 | 8.6
50 | CCc1c(C(=O)Nc2ccc(S(=O)(=O)N3CCOCC3)cc2)csc1C | -7.22
51 | CC(C)(C)c1ccc(C(=O)Nc2c3c(nn2C(C)(C)C)CS(=O)(=O)C3)cc1 | 5.49
52 | C=CCNC(=S)NNC(=O)c1cccn(Cc2ccc(Cl)c(Cl)c2)c1=O | 5.23
53 | CC1CCN(c2ncnc3c2cnn3-c2ccccc2)CC1 | 15.2
54 | O=C(O)c1ccccc1NS(=O)(=O)c1ccc2c(c1)OCCO2 | 13.8
55 | CC(=O)Nc1ccc(NC(=O)c2c([N+](=O)[O-])cnn2C)cc1 | 15.7
56 | O=C(Cn1ncc(N2CCOCC2)c(Br)c1=O)c1ccc(Cl)cc1 | 1.92
57 | O=C1C=C(N2CCN(C3=CC(=O)CCC3)CC2)CCC1 | 11.7
